# Experimental data from PubChem BioAssay AID624296 (National Center for Advancing Translational Sciences (NCATS), 2012).
# About 9,900 (2.8%) of roughly 350,000 compounds were called active. The shares of active, inactive and inconclusive entries below differ from those in the screen. Calls follow the shape of the dose curve; as a rule, active = well fitted activation curve with a large enough effect; inconclusive = small, poorly fitted or top-dose-only effect; inactive = no such curve, though single readings can be large or run the other way. No potency is given beside an inconclusive call; the fits are too rough.
# Assay: A quantitative high throughput screen for small molecules that induce DNA re-replication in MCF 10a normal breast cells. Also: nearly all actives have a fitted effect of over 50% in size. As to activity, positive = re-replication: % of control where 0% means no effect.
# Conditions: MCF 10A DNA re-replication, Hoechst nuclear intensity, 48 h; activity, positive = re-replication: at 46.1 µM (top of the series)
# Potency is read from the fitted curve at half-maximal effect; tags tell the direction and shape of the fitted curve.
SMILES,Potency,"activity, positive = re-replication"
CCCOc1ccc(NC(=O)CC2C(=O)N(CC)C(=S)N2CCNC(C)=O)cc1 (stereo not drawn),"inconclusive [activator, single point]",
COc1ccc(N2CCN(C(=O)CSc3nnc(NC(=O)C4CCC4)s3)CC2)cc1,"inconclusive [activator, partial curve, poor fit]",
Cc1cc(C)c2cc(C(=O)N(C)C3CCN(C)CC3)[nH]c2c1,"inconclusive [activator, partial curve, poor fit]",
CN(CCc1ccccc1)C(=O)c1ccc(NC(=O)Cc2cccc(NC(=O)C3CCN(C(=O)CCc4ccccc4)CC3)c2)cc1,"inconclusive [activator, full curve, poor fit]",
Cc1cc(C)c(/C=N/NC(N)=O)c(C)c1/C=N/NC(N)=O,"inconclusive [activator, single point]",
CCCC1(c2ccccc2)NC(=O)N(CC(=O)Nc2sc(-c3ccccc3)cc2C(=O)OCC)C1=O (stereo not drawn),"inconclusive [activator, partial curve, poor fit]",
Cc1cc(C)cc(OCC(=O)Nc2nc(-c3ccccn3)cs2)c1,"inconclusive [activator, partial curve, poor fit]",
COC(=O)c1c(N)sc2c1CCN(c1ncc(C(F)(F)F)cc1Cl)C2,"inconclusive [activator, single point]",
CSCC[C@H](NC(=O)[C@@H]1Cc2ccccc2CN1)C(=O)Nc1ccc2c(c1)OCO2,"inconclusive [activator, single point]",
COC(=O)c1[nH]c2ccc(F)cc2c1NS(=O)(=O)c1ccc(F)c(C)c1,"inconclusive [activator, partial curve, poor fit]",
O=C(Nc1ccc(-n2nncc2-c2ccco2)cc1)c1cccc(F)c1,"inconclusive [activator, single point]",
CN(C(=O)COC(=O)/C=C/c1ccc(Cl)c(Cl)c1)c1c(N)n(Cc2ccccc2)c(=O)[nH]c1=O,"inconclusive [activator, single point]",
O=C(C(=O)N1CCCC1CO)N1CCCC1CO (stereo not drawn),"inconclusive [activator, partial curve, poor fit]",
COc1cc(NC(=O)c2ccc(-c3csc(C)n3)cc2)c(OC)cc1Cl,"inconclusive [activator, full curve, poor fit]",
Cc1ccc(-c2nnn(CC(=O)N(Cc3cccs3)C(C(=O)NC3CCCCC3)c3ccco3)n2)o1 (stereo not drawn),"inconclusive [activator, partial curve, poor fit]",
CSc1scc2c1-c1nc(SCC(=O)C(C)(C)C)ncc1CC2,"inconclusive [activator, single point]",
CCCCSc1nc2sc3c(c2c(=O)n1-c1ccc(OC)cc1)CCN(C)C3,"inconclusive [activator, single point]",
Brc1ccc2c(c1)OCCOCCOc1cc(Br)ccc1OCCOCCOCCO2,"inconclusive [activator, single point]",
CC(C)Oc1ccc(Cn2c(=O)oc3ccccc32)cc1,"inconclusive [activator, single point]",
O=C(NNC(=O)c1cc2cc3ccccc3nc2s1)c1cccc(Cl)c1,"inconclusive [activator, single point]",
O=C(N/N=C/c1ccc(-c2ccc([N+](=O)[O-])cc2)o1)[C@H]1C[C@@H]1c1ccccc1,active: 23.1 µM,

SMILES,Potency,"activity, positive = re-replication"
CCn1cc(C(=O)NCc2ccco2)c(=O)c2cc(S(=O)(=O)N3CCc4ccccc4C3)ccc21,"inconclusive [activator, single point]",
Cc1ccc(S(=O)(=O)N2CC(=O)Nc3ccccc32)cc1,"inconclusive [activator, single point]",
CCOC(=O)c1ccc(NC(=O)CSc2nnc(CNC(=O)c3ccccc3F)o2)cc1,"inconclusive [activator, full curve, poor fit]",
Cc1ccc(/C=C/C(=O)OC(C)C(=O)NC2CCCCC2C)o1 (stereo not drawn),,inactive: 0.215%
Cc1ccc(C)c(N2CCN(c3ncnc4c3cnn4-c3ccccc3)CC2)c1,"inconclusive [activator, single point]",
CCOC(=O)C1C(c2ccc(O)c(OC)c2)NC(=O)NC1(O)C(F)(F)F (stereo not drawn),"inconclusive [activator, single point]",
COc1ccc(NC(=O)CCCSc2nc(-c3ccco3)cc(C(F)(F)F)n2)cc1OC,,inactive: 10.3%
Cc1cccc(-n2cc(-c3ccccc3)c3c(N4CCOCC4)ncnc32)c1,"inconclusive [activator, single point]",
c1ccc2sc(C3CCN(Cc4nnnn4Cc4ccc5c(c4)OCO5)CC3)nc2c1,"inconclusive [activator, partial curve, poor fit]",
COc1ccc(NC(=O)Nc2ccc(C(=O)N3CCOCC3)cc2)cc1,,inactive: -4.45%
O=c1[nH]nnc2sc3c(c12)CCCC3,,inactive: 1.18%
Cc1ccc(C)c(CN2CCC(CNC(=O)Nc3ccc(Cl)cc3)CC2)c1,,inactive: 1.73%
COc1cc(C(=O)Nc2ccc3c(c2)ncn3C(C)(C)C)cc(OC)c1OC,"inconclusive [activator, single point]",
O=C1c2sc3nc4ccccc4n3c2C(=O)N1c1ccccc1Cl,"inconclusive [activator, single point]",
Cc1ccc2[nH]nc(C(=O)N3CCCC(C(=O)c4ccc(Cl)cc4)C3)c2c1 (stereo not drawn),"inconclusive [activator, single point]",
CCOC(=O)/C(=N/O)C1=NC(C)(C)Cc2cc(C)c(C)cc21,,inactive: 2.06%
O=C(Nc1nc(=O)c2ccccc2s1)c1ccc(F)cc1,"inconclusive [activator, single point]",
Cc1cc(N2CCCN(C)CC2)nc2cc(Cl)ccc12,"inconclusive [activator, single point]",
c1ccc(C(c2ccccc2)c2nc(-c3cccnc3)no2)cc1,"inconclusive [activator, single point]",
CCCCN(C(=S)Nc1ccccc1)C1CCS(=O)(=O)C1 (stereo not drawn),"inconclusive [activator, single point]",
CCOC(=O)c1c(NC(=O)C(C)Sc2nnc(C)c(=O)[nH]2)sc2c1CCCC2 (stereo not drawn),,inactive: 11%

SMILES,Potency,"activity, positive = re-replication"
Cc1ccc(-c2csc3ncnc(-n4cnc5ccccc54)c23)cc1,active: 9.2 µM,
c1ccc(CC2CCN(c3nc4ccccc4n4cnnc34)CC2)cc1,"inconclusive [activator, single point]",
CCOC(=O)c1c(C)n(C)c2ccc(O)c(CN3CCC(C)CC3)c12,"inconclusive [activator, partial curve]",
CC(=O)N1CCN(c2ccc(NC(=O)c3cccc(Cl)c3Cl)cc2)CC1,"inconclusive [activator, full curve, poor fit]",
Cc1ccc(CNc2ccc3c(c2)OCO3)cc1,active: 23.1 µM,
O=c1[nH]c(=O)n(-c2ccc(F)cc2)c2c1C(C(F)(F)F)(C(F)(F)F)N=C(c1ccc(F)cc1)N2,"inconclusive [activator, single point]",
O=C(NCCN1CCN(C(=O)c2cccc(OC(F)F)c2)CC1)c1cccc(OC(F)F)c1,"inconclusive [activator, single point]",
O=C(NC(=S)Nc1ccccc1N1CCOCC1)c1sc2ccccc2c1Cl,"inconclusive [activator, single point]",
c1ccc2cc(CSCc3nc4ccccc4[nH]3)ccc2c1,active: 20.6 µM,
COc1ccc(OC)c(Nc2nc(-c3cccs3)cs2)c1,"inconclusive [activator, single point]",
CC(C)N(Cc1cc2ccccc2[nH]c1=O)C(=O)c1cccnc1,"inconclusive [activator, partial curve, poor fit]",
CCN(CC)S(=O)(=O)c1ccc(C)c(NC(=O)COc2ccc(Cl)cc2Br)c1,"inconclusive [activator, partial curve, poor fit]",
COc1ccc(C(=O)NNC(=O)Cc2nc3nc(C)cc(C)n3n2)cc1,,inactive: -0.479%
COc1ccc(CN(CC2CCCO2)C(=O)CN2C(=O)C(C)Oc3ccc(C)cc32)cc1OC (stereo not drawn),"inconclusive [activator, full curve, poor fit]",
COc1ccc2nc3cc([N+](=O)[O-])ccc3c(NNc3ccc([N+](=O)[O-])cc3)c2c1,,inactive: 0.163%
CSc1ccc(/C=C/C(=O)c2ccc(NC(C)=O)cc2)cc1,"inconclusive [activator, single point]",
Cc1ccc(-c2csc3ncnc(N4CCN(C(=O)c5ccco5)CC4)c23)cc1,,inactive: 22.4%
Cc1ccccc1S(=O)(=O)Cc1ccc(C(=O)NC(C)c2ccc3c(c2)OCCO3)o1 (stereo not drawn),,inactive: 2.09%
O=C(O)c1cccc(CSc2n[nH]c(-c3ccc(Cl)cc3Cl)n2)c1,"inconclusive [activator, partial curve, poor fit]",
Cc1ccc(Nc2c(-c3ccccc3O)nc3cnccn23)cc1,"inconclusive [activator, partial curve, poor fit]",
Cc1cc(OCCn2nc(C(=O)O)c3ccccc3c2=O)ccc1C(C)C,"inconclusive [activator, partial curve, poor fit]",
